Source: patent US20250241301A1, “COMPOSITIONS AND METHODS FOR INHIBITING PATHOGEN GROWTH ON PLANTS AND IMPROVING CROP SAFETY” (priority 2024, published 2025)
Like-named read-outs stand apart in the source and are kept apart here.

What was measured:
potato tubers [1] = settings: Trans-2-heptenal 0.15 ml/kg alone or with PG; PG only 0.075 mL/kg; vapor; N = 5
potato tubers [2] = format: in vivo; settings: Trans-2-pentenal 0.15 ml/kg alone or with PG; PG only 0.075 mL/kg; vapor; N = 5
[3] = at 20° C.; cited from earlier work
mandarin oranges = assay: T2H and T2H/PG vapor treatment of mandarin oranges, peel scarring; settings: for Cumulative Peel Scarring (N = 5) / Post Treatment Mandarin Visual Fruit Quality: mandarin oranges
Yukon Gold Potatoes = assay: Dose response of aldehyde vapors for phytotoxicity on Yukon Gold potatoes
potato tubers [4] = assay: T2H vapor treatment of stored potato tubers in Mason jars, skin lesion count (Table 4); format: in vivo; settings: n = 5 tubers/variety
potato tuber = assay: Vapor treatment of potatoes, lesions per tuber after 30 days in cold storage; format: in vivo; settings: vapor @ 50 g/tonne (0.06 mL/kg)
potato tubers [5] = assay: T2H / hexylene glycol vapor treatment of potato tubers, skin lesion count (Table 9); settings: T2H […] alone or in mixture, HG alone 0.45 ml/kg, n = 5 tubers
[6] = T2H 0.250 mL/kg alone or with 0.025 mL PG, PG only at 0.025 mL/kg, vapor
[7] = T2H 0.5 mL/kg vapor, Norland Red
[8] = T2H 0.5 mL/kg vapor, Ranger Russet
[9] = T2H 0.5 mL/kg vapor, Yukon Gold
[10] = T2H 1.0 mL/kg vapor, Norland Red
[11] = T2H 1.0 mL/kg vapor, Ranger Russet
[12] = T2H 1.0 mL/kg vapor, Yukon Gold

Compound: CCCC/C=C/C=O [Trans-2-heptenal (T2HP), Trans-2-heptenal]
- 48 h Post Treatment No. of Lesions (potato tubers [1]): 15
- 96 h Post Treatment No. of Lesions (potato tubers [1]): 20
- Total No. of Lesions (potato tubers [1]): 35

Compound: CC(O)CO (centres unmarked) [PG, propylene glycol]
- 48 h Post Treatment No. of Lesions (potato tubers [2]): 4
- 96 h Post Treatment No. of Lesions (potato tubers [2]): 4
- Total No. of Lesions (potato tubers [2]): 8
- vapor pressure [3]: 10.6 pa
- Cumulative Peel Scarring (N = 5) (mandarin oranges; [6]): 3
- Post Treatment Mandarin Visual Fruit Quality (mandarin oranges; [6]): Minor discoloration/spotting of peel.
- 48 h Post Treatment No. of Lesions (potato tubers [1]): 2
- 96 h Post Treatment No. of Lesions (potato tubers [1]): 5
- Total No. of Lesions (potato tubers [1]): 7

Compound: CCCCCCC/C=C/C=O [Trans-2-decenal (T2D), Trans-2-Decenal]
- phytotoxicity on potato, comparison of aldehydes (Yukon Gold Potatoes; 0.10-0.20 mL/kg vapor): generally more phytotoxic
- No. of Lesions 96 h (Yukon Gold Potatoes; 0.10 mL/kg vapor): 15
- No. of Lesions (48 h) (Yukon Gold Potatoes; 0.10 mL/kg vapor): 10
- Total No. of Lesions (3 tubers) (Yukon Gold Potatoes; 0.10 mL/kg vapor): 25
- No. of Lesions 96 h (Yukon Gold Potatoes; 0.20 mL/kg vapor): 36
- No. of Lesions (48 h) (Yukon Gold Potatoes; 0.20 mL/kg vapor): 17
- Total No. of Lesions (3 tubers) (Yukon Gold Potatoes; 0.20 mL/kg vapor): 53
- No. of Lesions 96 h (Yukon Gold Potatoes; […] vapor): 18
- No. of Lesions (48 h) (Yukon Gold Potatoes; […] vapor): 9
- Total No. of Lesions (3 tubers) (Yukon Gold Potatoes; […] vapor): 27

Compound: CCC/C=C/C=O [T2H, trans-2-hexenal]
- No. of Fresh Lesions (96 h) (potato tubers [4]; [7]): 13
- No. of Lesions (48 h) (potato tubers [4]; [7]): 3.5
- Total Lesions/tuber (potato tubers [4]; [7]): 16.5
- No. of Fresh Lesions (96 h) (potato tubers [4]; [8]): 6
- No. of Lesions (48 h) (potato tubers [4]; [8]): 4
- Total Lesions/tuber (potato tubers [4]; [8]): 10
- No. of Fresh Lesions (96 h) (potato tubers [4]; [9]): 15
- No. of Lesions (48 h) (potato tubers [4]; [9]): 10
- Total Lesions/tuber (potato tubers [4]; [9]): 25
- No. of Fresh Lesions (96 h) (potato tubers [4]; [10]): 38
- No. of Lesions (48 h) (potato tubers [4]; [10]): 16
- Total Lesions/tuber (potato tubers [4]; [10]): 54
- No. of Fresh Lesions (96 h) (potato tubers [4]; [11]): 23
- No. of Lesions (48 h) (potato tubers [4]; [11]): 3
- Total Lesions/tuber (potato tubers [4]; [11]): 26
- No. of Fresh Lesions (96 h) (potato tubers [4]; [12]): 10
- No. of Lesions (48 h) (potato tubers [4]; [12]): 6
- Total Lesions/tuber (potato tubers [4]; [12]): 16
- No. of Lesions/tuber after 30 days in cold storage (potato tuber; Dark Red Norland): 2.15
- No. of Lesions/tuber after 30 days in cold storage (potato tuber; Russet Burbank): 1.03
- No. of Lesions/tuber after 30 days in cold storage (potato tuber; Snowden): 3.05
- No. of Lesions/tuber after 30 days in cold storage (potato tuber; Yukon Gold): 0.43
- vapor pressure [3]: 13 hpa
- phytotoxicity to mandarin peels (mandarin oranges; 0.5 or 0.25 mL/kg applied as a vapor): phytotoxic to the peels
- Cumulative Peel Scarring (N = 5) (mandarin oranges; [6]): 13
- Post Treatment Mandarin Visual Fruit Quality (mandarin oranges; [6]): Reddish brown spotting - unacceptable
- Cumulative Peel Scarring (N = 5) (mandarin oranges; T2H 0.500 mL/kg vapor): 320
- Post Treatment Mandarin Visual Fruit Quality (mandarin oranges; T2H 0.500 mL/kg vapor): 75%-90% fruit peel turned reddish
- No. of Lesions 96 h (Yukon Gold Potatoes; […] vapor): 8
- No. of Lesions (48 h) (Yukon Gold Potatoes; […] vapor): 10
- Total No. of Lesions (3 tubers) (Yukon Gold Potatoes; […] vapor): 18
- Total No. of Lesions 48 h (potato tubers [5]; Cecile): 23
- Total No. of Lesions 96 h (potato tubers [5]; Cecile): 21
- Total No. of Lesions TOTAL (potato tubers [5]; Cecile): 44
- Total No. of Lesions 48 h (potato tubers [5]; Isabella): 31
- Total No. of Lesions 96 h (potato tubers [5]; Isabella): 12
- Total No. of Lesions TOTAL (potato tubers [5]; Isabella): 43
